Experimental data: the supplement of paper PMC3334620
In all, about 33,000 sequences were measured (“E-score (-0.5 to 0.5)”: median about -0.036, highest 2% from about 0.37 on). Some of the results follow.

Each sequence was assayed against T1, Yer064c (UniProt P40041) (assay: PBM E-score (8-mer binding enrichment) (E-score (-0.5 to 0.5)); higher = stronger / more preferred TF binding; most listed sequences are background and not binding sites). Conditions: protein concentration: 200 nM; construct: GST-full length.
T1 sequence: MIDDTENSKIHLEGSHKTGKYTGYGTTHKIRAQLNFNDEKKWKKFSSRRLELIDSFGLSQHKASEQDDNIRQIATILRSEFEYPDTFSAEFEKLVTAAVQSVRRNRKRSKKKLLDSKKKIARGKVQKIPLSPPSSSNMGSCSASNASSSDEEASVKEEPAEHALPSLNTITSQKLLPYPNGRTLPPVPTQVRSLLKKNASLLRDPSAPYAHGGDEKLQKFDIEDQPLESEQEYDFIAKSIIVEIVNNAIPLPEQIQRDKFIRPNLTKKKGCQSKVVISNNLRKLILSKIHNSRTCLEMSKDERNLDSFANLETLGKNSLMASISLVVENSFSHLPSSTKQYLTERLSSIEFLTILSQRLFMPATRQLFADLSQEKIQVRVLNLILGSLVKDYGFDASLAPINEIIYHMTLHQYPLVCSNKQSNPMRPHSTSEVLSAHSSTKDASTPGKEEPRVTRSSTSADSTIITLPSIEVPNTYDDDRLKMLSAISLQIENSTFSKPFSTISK
Procedure, shortened: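 The E-score, a modified Wilcoxon-Mann-Whitney statistic, was computed by the Universal PBM Analysis Suite for every ungapped eight-base word pooled with its reverse complement. Scans behind it were normalised with masliner after bound GST-tagged yeast transcription factors were detected with fluorescent anti-GST. The proteins, at about 100-200 nM, had been applied to universal all-10-mer Agilent arrays made double-stranded by primer extension.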

Row | Sequence | PBM E-score
1 | AATTATGG | -0.0787
2 | ATCCCTAC | -0.0319
3 | GAGAGGGA | -0.103
4 | CAATAGAC | 0.05
5 | AGGCCAAT | -0.198
6 | CCGTTAGG | -0.239
7 | AGCTAACA | -0.105
8 | ACATCCCA | -0.263
9 | GACGCCCA | -0.134
10 | GGCTTTGA | -0.0627
11 | CGACCCTC | -0.0653
12 | AAGGCGTG | -0.162
13 | AACTAAGG | 0.116
14 | CTAATAAA | 0.113
15 | GAGAAGCA | -0.11
16 | AGGCGAAC | -0.107
17 | CAAGCTAG | -0.24
18 | CGCGACGA | 0.0243
19 | AGAGTAGA | -0.00682
20 | AGGTCGCC | -0.0538
21 | CAAACACA | 0.106
22 | CACGTTCC | -0.142
23 | ATGAAGCG | -0.197
24 | CATCTAGC | -0.192
25 | ACCGGTTC | -0.336

Row | Sequence | PBM E-score
26 | CTTTATTA | 0.097
27 | CGACGACG | -0.12
28 | CATCCGCA | -0.0245
29 | TGGGTCAA | 0.0506
30 | AGGCAAGA | -0.108
31 | AAACTTAT | 0.192
32 | ACTCGCGC | 0.184
33 | ATCTCTTC | -0.114
34 | GAGAGTTA | 0.0441
35 | CGAAAATA | -0.0465
36 | AGATCAGC | 0.0642
37 | CCATTACC | -0.108
38 | AATTTATG | -0.00855
39 | GATTTTGA | 0.244
40 | CACGGCCG | -0.012
41 | CATACGCA | -0.0763
42 | AGGACGAC | 0.139
43 | GTTGATGA | 0.278
44 | ACTCATGA | 0.402
45 | CATTCTCA | 0.0264
46 | TATATAAA | 0.163
47 | ACCTCACC | 0.0366
48 | CCAATGGG | -0.239
49 | TATAATAA | 0.115
50 | AGACCTTA | 0.174

Row | Sequence | PBM E-score
51 | TTTCCAAA | -0.0334
52 | AGATTACG | 0.0718
53 | ATCTATCG | -0.162
54 | AAGCCCCA | -0.246
55 | ATTTTCTG | 0.126
56 | ACGGAGCT | -0.289
57 | AGCAAGTC | 0.101
58 | ATAACTGC | 0.0557
59 | AACAGTAG | -0.0763
60 | CGCCCCTA | -0.188
61 | GTAACACA | 0.0697
62 | CGGACTGA | 0.178
63 | CGTACTGA | 0.137
64 | CAAGAGAA | -0.0423
65 | ACGACGTC | -0.116
66 | GGACTAAA | 0.331
67 | CGATCGGC | -0.258
68 | AATCAGAG | 0.269
69 | AAAGTCGC | 0.173
70 | ATGGGCAG | -0.2
71 | CCAAACGA | -0.01
72 | CCCGAAGA | -0.278
73 | GCGAGAAC | -0.0574
74 | TACGGCCA | -0.26
75 | AGTCGACC | 0.169

Row | Sequence | PBM E-score
76 | GCATCCGA | -0.165
77 | GCCCCGCA | -0.336
78 | CGGCTTTA | -0.0824
79 | ACAGCACA | -0.0561
80 | ACCTGTCT | -0.00482
81 | AACTAACG | -0.00567
82 | ATCTGTAA | 0.0356
83 | ACTTAGCT | -0.0337
84 | CAATTGAG | 0.15
85 | CTGCTTGC | -0.21
86 | GCCTAGGA | -0.205
87 | ACACCCCG | -0.135
88 | GCTAAGTA | 0.0764
89 | CCTTTGCA | -0.134
90 | AGCGGCCT | -0.232
91 | AGCTGACA | 0.00999
92 | CCGTATTC | -0.0188
93 | ACGCTCGA | -0.244
94 | GCTGCGCA | -0.0154
95 | AGTTGTAG | -0.00589
96 | ACAAGGGA | -0.248
97 | AGTAAGAG | 0.042
98 | TAAACTGA | 0.141
99 | AACATAGG | -0.104
100 | CACACCGC | 0.0449

Row | Sequence | PBM E-score
101 | GCGTCACA | -0.13
102 | CCTCCAAA | -0.116
103 | ACGTCGGC | 0.0442
104 | ACCGCACA | -0.211
105 | AAAGGCTA | -0.0748
106 | ACCTATTC | -0.161
107 | GTCATTGA | 0.261
108 | AAATCGGA | 0.118
109 | GATTCTAA | 0.28
110 | AAGTCCGG | -0.0349
111 | AATTAAAT | 0.135
112 | CCATTTCC | 0.105
113 | CAGCCGAG | 0.0098
114 | GCGTTTTA | -0.151
115 | CACGATAC | -0.0728
116 | AATAATAA | 0.124
117 | GTCCAAGA | -0.112
118 | TCACGCCA | 0.193
119 | AGACTCCA | 0.323
120 | AAGTACCA | 0.00037
121 | TAGTTGAA | 0.127
122 | TATAGGCA | -0.158
123 | ATAACAGC | -0.129
124 | CCACGTTC | -0.218
125 | AAGCTGGT | -0.0556

Row | Sequence | PBM E-score
126 | TGAAGCCA | 0.114
127 | CTCTCAAA | 0.18
128 | GGTAAGGA | -0.0554
129 | ATTGCTTG | 0.102
130 | CGTCCACC | -0.236
131 | AAAACAAT | 0.0653
132 | CATTGGGC | -0.112
133 | GACTTCAC | 0.31
134 | ATCCTTCA | 0.115
135 | GCGAGCGC | -0.169
136 | GCACTCAC | 0.0283
137 | GGCTTAAA | 0.0239
138 | AAAATCGT | -0.0697
139 | CAGAGCGC | -0.0936
140 | AGATCCAT | -0.0304
141 | GTGCCAAC | -0.158
142 | ATGGGAGA | -0.0704
143 | CTGTTTCA | 0.0201
144 | TAAACTTA | 0.201
145 | AGGCGCGG | -0.293
146 | GGAGAACC | -0.271
147 | ATCCCTGA | 0.0465
148 | AGGGTCCC | -0.371
149 | CCGAAAAG | -0.0303
150 | GCGAAGCC | -0.0544

Row | Sequence | PBM E-score
151 | CTGTCTCA | 0.238
152 | CCGGCTCC | -0.373
153 | AGGGCCAC | -0.169
154 | AGTGCGGA | 0.0375
155 | CAATATCC | -0.178
156 | GTTCGACA | 0.02
157 | ACGTAATG | -0.0682
158 | AGCTTTGG | -0.0788
159 | AAACAGAT | 0.0558
160 | ATCCGTCC | -0.115
161 | CGGGTACC | -0.097
162 | GAAACTTC | -0.11
163 | ATTTCCAC | 0.0283
164 | ATTAAAGG | 0.0794
165 | AGCTCTTG | -0.0716
166 | ACGAACCG | -0.147
167 | CCCTTACC | -0.241
168 | ACGGCGGC | -0.217
169 | AGTGCTGA | 0.0779
170 | ATATATGA | 0.226
171 | AACAACGC | -0.208
172 | CGGTCCAG | -0.129
